# Some of the results follow. The energies were worked out here from pooled read counts, against the library average; single values are noisy.
# Target: T1, Pho4 (S. cerevisiae) (UniProt P07270)
# T1 sequence: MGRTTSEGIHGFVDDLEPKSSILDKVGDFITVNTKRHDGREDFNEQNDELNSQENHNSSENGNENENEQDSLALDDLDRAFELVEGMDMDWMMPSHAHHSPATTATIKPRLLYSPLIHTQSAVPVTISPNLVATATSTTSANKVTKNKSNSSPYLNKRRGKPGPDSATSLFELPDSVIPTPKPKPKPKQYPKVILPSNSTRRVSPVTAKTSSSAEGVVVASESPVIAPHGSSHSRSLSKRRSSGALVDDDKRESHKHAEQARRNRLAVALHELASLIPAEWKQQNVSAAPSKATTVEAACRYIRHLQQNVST
# Assay: relative binding free energy (BET-seq); higher = weaker binding
# Conditions: reference: library average
row,Sequence,relative binding free energy [kcal/mol]
1,TTAGGCACGTGGGTAA,-0.19
2,GGTGCCACGTGGAAAT,0.2
3,GAGCGCACGTGTAGTG,0.03
4,GAGCGCACGTGGAGGT,0.01
5,TTGAGCACGTGGTCTA,-0.08
6,AATGTCACGTGTTGTG,0.09
7,GATATCACGTGAGGTA,0.45
8,CGGAACACGTGTGGGA,0.05
9,GTCTGCACGTGTTGTA,0.07
10,ACTCGCACGTGTGTGT,-0.12
11,AGTTCCACGTGGCGTG,0.06
12,TAGGTCACGTGCTATG,-0.15
13,TTTGTCACGTGTCACT,0.12
14,GTGGTCACGTGCCGGC,0.12
15,GAGGGCACGTGCAAGG,0.04
16,AGGGTCACGTGCGTTC,0.1
17,TTCGCCACGTGTGAGT,0.07
18,GATGTCACGTGTTCGG,0.13
19,CGTGTCACGTGTCTTT,0.02
20,TCTGGCACGTGGTTAG,-0.15
21,GGCGGCACGTGGTGGT,0.02
22,CGGGTCACGTGTAGTA,0.08
23,TAGTGCACGTGACTTG,0.06
24,GTGGCCACGTGAAGGG,0.07
25,GGTTCCACGTGAGGTA,0.18
26,GTATACACGTGAGGGA,0.37

row,Sequence,relative binding free energy [kcal/mol]
1,GAATGCACGTGATGGA,0.21
2,TTTGGCACGTGACGGT,0.08
3,CGTGTCACGTGGAGCG,0
4,TGTGCCACGTGTTTAG,-0.01
5,TGGGCCACGTGTGCGG,-0.17
6,GGAGGCACGTGCAGGG,-0.07
7,TAGGTCACGTGTTCGG,0.13
8,TGGAGCACGTGGAGAA,-0.14
9,TTTTCCACGTGAAGGG,0.33
10,ATATGCACGTGTTTAA,-0.19
11,TCAGGCACGTGTATTT,0.06
12,TATTGCACGTGCGGCG,-0.09
13,TGGTGCACGTGCTGGT,-0.04
14,GTTTTCACGTGGAGTG,0.31
15,ATGATCACGTGGGGGA,-0.02
16,TTATACACGTGTGGAC,0.18
17,AGTGTCACGTGTTATT,-0.03
18,TGAGTCACGTGTGTGC,0.09
19,GGCTTCACGTGTGTAG,0.31
20,TTGGACACGTGCGTAG,0.08
21,TTTAACACGTGTTATG,0.14
22,TTGGTCACGTGTTAAC,0.13
23,TTTAGCACGTGGAACG,0.07
24,CCGGGCACGTGGTTGG,-0.15
25,TTTTTCACGTGTGGGG,0.4
26,TGCTACACGTGGTCGG,-0.06

row,Sequence,relative binding free energy [kcal/mol]
1,AGTGTCACGTGATGAG,0.18
2,GGCGGCACGTGATAGT,0.08
3,GGTCACACGTGGTGAA,0.16
4,GTGGTCACGTGTGTTC,0.23
5,CGTGTCACGTGGTGGT,-0.01
6,AATTACACGTGGAAGT,0.18
7,GATTTCACGTGGATGT,0.27
8,ACAAGCACGTGGTGTG,-0.29
9,TTGCGCACGTGGTTTG,-0.11
10,GGGTGCACGTGCGACG,-0.09
11,GTAGGCACGTGGGAGT,-0.17
12,CGGGTCACGTGGGAAT,-0.02
13,TTGTCCACGTGTGGCT,-0.01
14,TCGCGCACGTGTGGGT,-0.04
15,GCTGTCACGTGATATT,0.3
16,GGTCTCACGTGCTGTT,0.24
17,TATATCACGTGGAAGT,0.22
18,CGTGGCACGTGGGATG,-0.17
19,TGTAGCACGTGAGGAT,0.25
20,CAGCGCACGTGGTAGG,-0.2
21,ATCGACACGTGTGGGT,0.1
22,CAGGCCACGTGGTTGG,-0.21
23,AGTCGCACGTGGGGAA,-0.15
24,TGGTGCACGTGGGTTT,-0.11
25,AGAGACACGTGATTGG,0.13
26,GGGTCCACGTGGGGTA,-0.2

row,Sequence,relative binding free energy [kcal/mol]
1,ATAGGCACGTGTTCGA,-0.18
2,TCATTCACGTGTGGGA,0.34
3,ATAATCACGTGATTGG,0.16
4,TGAAGCACGTGCGGGT,-0.15
5,GGGGTCACGTGCAAGT,0.14
6,TATGTCACGTGAGAAA,0.21
7,AGAGACACGTGGAGTA,0.11
8,AATGGCACGTGCGCGG,-0.32
9,AGGTACACGTGTGAGT,0.17
10,AATGTCACGTGCTAGT,0.12
11,GGAATCACGTGTGTGC,0.34
12,GGGTACACGTGTGCTG,0.08
13,GAAGTCACGTGATGTA,0.31
14,GAGAGCACGTGGGTCT,-0.14
15,TTTTTCACGTGCGTTA,0.2
16,AATGTCACGTGGTACA,0.04
17,AAAAGCACGTGTGATG,0.11
18,GGTTGCACGTGGGACT,0
19,GCGTTCACGTGATGGT,0.39
20,ATGTTCACGTGGGGAG,0.11
21,AAGTTCACGTGTATCG,0.14
22,GGTGGCACGTGATCCG,0.08
23,TTGTGCACGTGCATGT,-0.12
24,TTATACACGTGATGAT,0.01
25,CAGGGCACGTGATTGA,0.04
26,GTGCGCACGTGAAGTG,0.21

row,Sequence,relative binding free energy [kcal/mol]
1,TTGTTCACGTGTGTTG,0.32
2,GATTTCACGTGGTCGG,0.32
3,AGCGACACGTGGGGTC,-0.09
4,TTTAGCACGTGCTGCT,-0.02
5,CCTGGCACGTGTGTTA,0.05
6,CTATTCACGTGGTGCT,0.09
7,ATCTTCACGTGCTTGG,0.32
8,TTGTCCACGTGTGTGC,0.14
9,GTTAGCACGTGCAGTC,0.24
10,AGTCCCACGTGGTTTG,-0.05
11,TTTGCCACGTGTTAAT,-0.14
12,TAAGTCACGTGATTGT,0.09
13,CAGTGCACGTGAGCGT,0.09
14,TATGTCACGTGCCGGT,0.06
15,CAGTGCACGTGGGATA,-0.01
16,TAGTGCACGTGATTTA,-0.03
17,CGGGGCACGTGTTGTT,-0.05
18,TGAACCACGTGTAGTG,0.02
19,GAATTCACGTGAAGTT,0.54
20,TCTTTCACGTGGTCGG,0.15
21,GAATTCACGTGTTGTC,0.31
22,ATGCGCACGTGAAGTG,0.13
23,TTATACACGTGCTGGG,0.1
24,GGGCTCACGTGAGGGC,0.33
25,GTTAGCACGTGATAGG,0.11
26,TGGAGCACGTGAGTGA,0.16

row,Sequence,relative binding free energy [kcal/mol]
1,TTCAGCACGTGGGTGC,-0.15
2,GAGTGCACGTGTTGGT,0.05
3,GGAGACACGTGTGCGG,-0.02
4,GAGAGCACGTGGCTGG,-0.11
5,AGGAGCACGTGAAAGT,0.21
6,ATTCGCACGTGGTTTT,-0.08
7,GCAAGCACGTGGTAGG,-0.16
8,TCCTTCACGTGGTTGA,0.4
9,TTGAGCACGTGCTTGG,-0.05
10,AGCGGCACGTGGTATT,-0.24
11,GTCGACACGTGGGCGG,-0.04
12,TATGACACGTGATATG,0.22
13,ACATGCACGTGGGGTC,-0.14
14,GTCAGCACGTGGTATG,-0.15
15,AATGACACGTGGGCTG,-0.12
16,GGAGTCACGTGGCAGT,0.06
17,ATGGTCACGTGGGTTG,-0.03
18,TCGCGCACGTGTTTTG,0.05
19,TTTTTCACGTGTCGGC,0.33
20,TGGATCACGTGATTAG,0.31
21,AGCGTCACGTGTTTTA,0.05
22,AGATTCACGTGCCGGG,0.3
23,ATGGACACGTGTTTTT,0.06
24,GGGATCACGTGGTTAG,0.01
25,TTTAGCACGTGAAATG,0.26
26,TTGAGCACGTGGGGCT,-0.17

row,Sequence,relative binding free energy [kcal/mol]
1,AATCGCACGTGAATGG,0.3
2,ATTATCACGTGGAGTG,0.08
3,GTTGTCACGTGGGCTG,-0.07
4,TTCTTCACGTGGAGTG,0.21
5,GCATGCACGTGTGGGG,-0.02
6,TAGTACACGTGTATCG,0.16
7,AAGAGCACGTGTGGAT,-0.12
8,AGGTTCACGTGAAAAG,0.55
9,GGAATCACGTGTGTAT,0.16
10,TTGTTCACGTGCCAGG,0.11
11,CGGTCCACGTGTTGAG,0.09
12,CTATTCACGTGTTCGG,0.28
13,GTAAACACGTGTTGCT,0.05
14,CAGGGCACGTGATCGG,-0.09
15,ATGAGCACGTGTGATG,-0.22
16,GGCGGCACGTGTACGG,0.07
17,GTTCACACGTGGGTAA,-0.07
18,TGGTGCACGTGGAGTT,0.14
19,AGTTGCACGTGGAGGA,0.02
20,TGTGGCACGTGCTGCT,-0.23
21,TTTTCCACGTGTAAGG,0.1
22,TGAGTCACGTGTGAGC,0.2
23,TTATTCACGTGATCGT,0.24
24,TTCTCCACGTGTTTTT,0
25,AGGGACACGTGGGCCT,-0.12
26,TGTAACACGTGTCTGG,-0.03

row,Sequence,relative binding free energy [kcal/mol]
1,GATGTCACGTGAGTTC,0.29
2,TTTCGCACGTGTAAGG,0.14
3,TGGGTCACGTGAAGAC,0.37
4,CGTTGCACGTGCTGTT,-0.11
5,TGCTGCACGTGGGCGT,-0.12
6,GTTAACACGTGGACGG,0.27
7,TTGTCCACGTGTTGTA,-0.08
8,CGTAACACGTGTGAGT,0.11
9,TTGAGCACGTGTCGGT,-0.12
10,TTTCTCACGTGTGGTC,0.17
11,TAAATCACGTGGGGCG,0.08
12,TTACACACGTGTTAGG,0.11
13,GATGTCACGTGAAGGT,0.3
14,TTGTTCACGTGTGCAA,0.32
15,AAGTTCACGTGTAGAT,0.42
16,TGTAACACGTGACAGG,0.26
17,GATTTCACGTGAAGTG,0.43
18,CTGCTCACGTGGGGGC,0.02
19,GTCAGCACGTGTGATT,0.11
20,TGATGCACGTGTGAGT,-0.05
21,TTGATCACGTGAGTGA,0.31
22,GGCAGCACGTGGTATT,-0.06
23,TCCGTCACGTGCGGGG,0.1
24,TTACACACGTGTGAGG,0.08
25,TGTTGCACGTGCATTT,0.02
26,TAATGCACGTGAGATT,0.17

row,Sequence,relative binding free energy [kcal/mol]
1,ATCTACACGTGGGTGT,-0.1
2,CCATGCACGTGTGGGT,-0.05
3,ATAGGCACGTGATTAA,0.05
4,AGAGTCACGTGTATGA,0.14
5,GCTTGCACGTGGGGGT,-0.07
6,GGTTACACGTGTTAAT,0.41
7,ACGTGCACGTGGTGTA,-0.12
8,TTGTCCACGTGGGATA,-0.11
9,GGGATCACGTGAAGAG,0.3
10,AGATGCACGTGGTTAC,-0.01
11,GTGGGCACGTGGGGCT,-0.17
12,TGATCCACGTGTAGTG,0.05
13,TTTGCCACGTGTTTAA,-0.06
14,AGGGGCACGTGAGAAG,0.03
15,GTCAGCACGTGTAGGT,-0.02
16,AGTAACACGTGTAGAA,0.21
17,ATAGTCACGTGTAATA,0.13
18,TATGTCACGTGTGACG,0.19
19,TTGAGCACGTGCTTAT,-0.1
20,TTTTCCACGTGGATTA,0.18
21,ATGGCCACGTGGGTGT,-0.22
22,TGGTTCACGTGATGGT,0.47
